Article PMC4336329 (PLoS ONE, 2015)
Among all 310,000 compounds or so, about 2,200 (0.71%) showed an effect of 50% or more. Effects have a minus sign here. The list shows a part of the results.

target: human ether-à-go-go-related gene (hERG) potassium channel (human, UniProt Q12809); test: primary screen, population patch clamp on CHO cells stably expressing hERG
Sequence (Q12809 whole entry, looked up): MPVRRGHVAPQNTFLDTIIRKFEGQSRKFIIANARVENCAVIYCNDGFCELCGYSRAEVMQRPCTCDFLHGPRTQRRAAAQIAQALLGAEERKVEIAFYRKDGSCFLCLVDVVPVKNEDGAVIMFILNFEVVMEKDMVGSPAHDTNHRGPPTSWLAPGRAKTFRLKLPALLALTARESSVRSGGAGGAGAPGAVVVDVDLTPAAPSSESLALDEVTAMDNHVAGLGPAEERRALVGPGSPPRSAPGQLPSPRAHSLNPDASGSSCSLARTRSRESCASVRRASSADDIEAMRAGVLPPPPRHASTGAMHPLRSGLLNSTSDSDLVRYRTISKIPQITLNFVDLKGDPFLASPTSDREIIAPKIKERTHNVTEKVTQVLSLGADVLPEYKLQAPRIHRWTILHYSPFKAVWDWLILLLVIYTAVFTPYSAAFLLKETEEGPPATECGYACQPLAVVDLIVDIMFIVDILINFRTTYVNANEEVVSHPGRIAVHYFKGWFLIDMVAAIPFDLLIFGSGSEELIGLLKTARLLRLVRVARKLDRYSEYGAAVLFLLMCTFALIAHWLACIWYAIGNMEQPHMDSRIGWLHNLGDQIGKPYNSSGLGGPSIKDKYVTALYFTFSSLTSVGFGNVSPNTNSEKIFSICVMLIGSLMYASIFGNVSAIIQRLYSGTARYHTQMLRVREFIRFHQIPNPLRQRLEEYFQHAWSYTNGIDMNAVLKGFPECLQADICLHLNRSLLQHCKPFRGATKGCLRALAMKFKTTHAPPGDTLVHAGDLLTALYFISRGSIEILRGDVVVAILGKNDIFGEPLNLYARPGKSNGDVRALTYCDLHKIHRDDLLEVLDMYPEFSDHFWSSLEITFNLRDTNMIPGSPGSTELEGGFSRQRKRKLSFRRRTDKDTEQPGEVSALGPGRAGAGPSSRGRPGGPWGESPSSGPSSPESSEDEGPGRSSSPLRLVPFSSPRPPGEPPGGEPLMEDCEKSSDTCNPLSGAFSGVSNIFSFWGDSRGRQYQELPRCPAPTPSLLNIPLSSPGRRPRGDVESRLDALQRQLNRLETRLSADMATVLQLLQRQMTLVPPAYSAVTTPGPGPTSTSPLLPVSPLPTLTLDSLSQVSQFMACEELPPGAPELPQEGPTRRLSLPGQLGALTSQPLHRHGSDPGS

| SMILES | hERG current change (%, negative = inhibition) at 1uM |
| --- | --- |
| CCOc1ccc(N2C(=O)NC(=O)/C(=C\c3ccc(N4CCCCC4)o3)C2=O)cc1 | 5.27% |
| Cc1ccc(NC(=O)CCSc2nnc3ccccn23)cc1 | 10.6% |
| O=C(O)CCC(=O)N1CCc2c([nH]c3ccccc23)C1C(F)(F)F (stereo not shown) | 13.4% |
| Cc1ccc(S(=O)(=O)NCc2ccc(C(=O)NC3CCC(O)CC3)cc2)cc1C (stereo not shown) | 12.7% |
| O=C(/C=C/c1ccc2c(c1)OCO2)c1ccccn1 | 9.72% |
| CC1(C)CC(=O)C(C(C2=C(O)CC(C)(C)CC2=O)c2cccs2)C(=O)C1 (stereo not shown) | 2.32% |
| Cl.O=S(=O)(c1ccc2nc(Cc3ccccc3)[nH]c2c1)N1CCOCC1 | 9.59% |
| CCOc1ccccc1NC(=O)CN(c1cc(C)cc(C)c1)S(=O)(=O)c1c(C)noc1C | 12.9% |
| Cc1nn(C)c(Cl)c1C(=O)NCC(=O)O | 5.03% |
| Cc1cccc(N2C(=O)CC(Sc3nc(-c4ccccc4)c4cc(Cl)ccc4n3)C2=O)c1 (stereo not shown) | 11.3% |
| COc1ccc(COC(=O)Oc2ccc(CNC(C)=O)cc2OC)c([N+](=O)[O-])c1 | 8.09% |
| COc1ccc(C(=O)N(C)Cc2ccccc2F)cc1S(=O)(=O)N1CCCC1 | 11.8% |
| CC1(C(=O)Nc2c(F)c(F)c(F)c(F)c2F)CC1(Br)Br (stereo not shown) | 11.2% |
| COc1ccc(-c2cc(-c3ccccc3)nc(=O)[nH]2)cc1 | 5.3% |
| COc1cc(C(=O)Nc2ccc(NC(C)=O)cc2)ccc1OCc1ccccc1 | 16.5% |
| O=C(COC(=O)C12CC3CC(CC(C3)C1)C2)Nc1ccc(OC(F)F)cc1 | 2.54% |
| CCC(=O)N1CCc2cc(Br)cc(S(=O)(=O)N3CCCCCC3)c21 | -3.88% |
| CCc1c(C)nc(N)nc1OCC(F)(F)C(F)F | 4.12% |
| COc1ccc(NC(=O)CCCN2C(=O)C(c3ccccc3)Oc3cccnc32)cc1 (stereo not shown) | 21.8% |
| Cc1ccc2cc(CN(CC3CCCO3)S(=O)(=O)c3cccc4nsnc34)c(=O)[nH]c2c1 (stereo not shown) | -23.3% |
| O=C(CCC1CCCN(Cc2cccc(Cl)c2)C1)NCc1ccccc1F (stereo not shown) | -2.75% |
| Cc1ccc(Cn2nnc3c(=O)[nH]c(C4CCCN(S(=O)(=O)c5ccccc5F)C4)nc32)cc1 (stereo not shown) | 10.2% |
| O=C(Nc1cccc(C(=O)N2CCOCC2)c1)c1ccc([N+](=O)[O-])cc1 | 8.86% |
| COc1cc2c(cc1OC)CN(CC(=O)Nc1ccc3c(c1)OCO3)CC2 | 14.5% |
| O=C(c1ccccc1)c1ccc(OCC(O)CN2CCN(S(=O)(=O)N3CCCCC3)CC2)cc1 (stereo not shown) | -12.6% |
| Cc1nn(Cc2ccc(Cl)cc2)c(C)c1NC(=O)c1noc2c1CCCCC2 | -9.73% |
| Cc1c(-c2ccc(OCc3ccccc3)cc2)nc2ccccc2c1C(=O)O | 12.7% |
| COCCN(C(=O)COC(=O)c1cc2c(s1)CCCC2)c1c(N)n(Cc2ccccc2)c(=O)[nH]c1=O | 0.316% |

| SMILES | hERG current change (%, negative = inhibition) at 1uM |
| --- | --- |
| COCCNC(=O)C1(C)C=CC2(CCCCC2)N1C(=O)c1ccccc1 (stereo not shown) | 7.04% |
| CS(=O)(=O)N(CC(=O)Nc1cccc([N+](=O)[O-])c1)c1ccccc1F | 8.84% |
| Cc1ccc(S(=O)(=O)N2CCC(=O)CC2)cc1 | 3.36% |
| Cc1nn2c(NCc3ccccn3)cc(C(C)C)nc2c1-c1ccccc1 | 12.4% |
| O=C1c2ccccc2-c2ccc(C(=O)N3CCOCC3)cc21 | -4.45% |
| CC(C)n1cnc2c(NCc3ccccc3)cc(Cc3ccc(F)cc3)cc21 | 14% |
| CCOc1ccc(/C=C(\C#N)C(=O)c2c(C)[nH]c3ccccc23)cc1OC | 10.6% |
| O=C(O)c1cccc(NS(=O)(=O)c2ccc(Cl)c(C(=O)Nc3cccc([N+](=O)[O-])c3)c2)c1 | 12% |
| O=C(N/N=C/c1ccncc1)NC1CCCCC1 | 17.3% |
| Fc1c(F)c(F)c(/C=N/NC(=S)Nc2cccnc2)c(F)c1F | 12.1% |
| CC1CCN(c2ccc(C(=O)NCc3ccc4c(c3)OCO4)cc2[N+](=O)[O-])CC1 | 4.49% |
| CCn1c(NCc2cc(OC)ccc2OC)nc2ccccc21 | 3.13% |
| O=S(=O)(c1ccccc1)C1(C2CC(c3ccccc3)=NO2)CC(O)C1 (stereo not shown) | -9.74% |
| Fc1ccc(CNC(=S)Nc2cccc(C(F)(F)F)c2)cc1 | 11.9% |
| CCS(=O)(=O)N1CCC(C(=O)Nc2ccccc2OC)CC1 | 13.3% |
| CC(C)CN(CC(C)C)S(=O)(=O)N1CCC(C(=O)NCc2ccccn2)CC1 | 2.28% |
| COc1ccc(OCC(=O)Nc2ccc(NC(=O)c3cccs3)c(OC)c2)cc1 | 1.28% |
| CC(NC1c2ccccc2-c2ccccc21)c1ccccc1 (stereo not shown) | 10.9% |
| CC1CCCC(C)N1C(=O)Cn1nnc(-c2ccccc2)n1 (stereo not shown) | 16.6% |
| CCOc1ccc(N=C(NC#N)SCC(=O)NC2CC2)cc1 | 0.963% |
| COC(=O)C(Cc1ccccc1)NC(=O)c1ccc(C)cc1 (stereo not shown) | -0.691% |
| Cc1ccnc(NC(=O)c2cc(S(=O)(=O)N3CCCCC3)ccc2Cl)c1 | 4.56% |
| O=C(COC(=O)c1ccncc1)NCc1ccccc1 | 15.2% |
| O=C(COc1ccc(F)cc1)Nc1cc(Cl)ccc1-n1cncn1 | 12.2% |
| O=C(CCc1nc2ccccc2s1)OCC(=O)N1CCN(C(=O)c2ccco2)CC1 | -0.575% |
| NS(=O)(=O)c1ccc(NC(=S)NC(=O)C2CCCC2)cc1 | 10.1% |
| CC(C)(C)c1ccc(C(=O)c2c[nH]c(C(=O)NCC3CCCO3)c2)cc1 (stereo not shown) | 8.13% |
